Measured values as given in PubChem BioAssay AID588342 (National Center for Advancing Translational Sciences (NCATS), 2011).
In all, about 360,000 compounds went through this assay and about 25,000 (6.9%) were called active. Inconclusive means that the source gave no clear call. Such entries were picked first, then a sample of the others. Calls follow the shape of the dose curve; as a rule, active = well fitted inhibition curve with a large enough effect; inconclusive = small, poorly fitted or top-dose-only effect; inactive = flat fitted curve, though single readings scatter. Potencies beside an inconclusive call are fits to weak or partial responses and may not hold up.

target: Luciferin 4-monooxygenase (Photinus pyralis) (UniProt P08659); assay: qHTS profiling assay for firefly luciferase inhibitor/activator using purifed enzyme and Km concentrations of substrates (counterscreen for miR-21 project); details: purified FLuc, luminescence inhibition; series mostly up to 57.5 µM; activity change, negative = inhibition: at the top concentration; also: nearly all actives have a fitted effect of over 55% in size;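 as to activity change, negative = inhibition: plate controls were vehicle for no effect and reference inhibitor for full effect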
Chain of UniProt P08659 (P08659 whole entry, looked up): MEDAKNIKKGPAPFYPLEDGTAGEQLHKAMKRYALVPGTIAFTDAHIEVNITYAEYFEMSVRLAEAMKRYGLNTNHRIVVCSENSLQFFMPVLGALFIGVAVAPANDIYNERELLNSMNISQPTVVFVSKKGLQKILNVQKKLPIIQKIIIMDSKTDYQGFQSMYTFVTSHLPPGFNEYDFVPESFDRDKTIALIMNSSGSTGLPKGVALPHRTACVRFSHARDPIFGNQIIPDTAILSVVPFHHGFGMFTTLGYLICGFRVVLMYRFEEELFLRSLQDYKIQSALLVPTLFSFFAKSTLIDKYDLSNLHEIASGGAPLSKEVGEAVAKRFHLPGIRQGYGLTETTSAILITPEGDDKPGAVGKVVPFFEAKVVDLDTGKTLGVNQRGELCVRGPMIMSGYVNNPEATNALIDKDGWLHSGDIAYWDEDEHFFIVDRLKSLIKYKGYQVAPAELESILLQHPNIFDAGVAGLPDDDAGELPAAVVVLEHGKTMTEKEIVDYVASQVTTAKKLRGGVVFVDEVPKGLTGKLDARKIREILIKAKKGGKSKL
Method in brief: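 Purified P. pyralis luciferase (10nM final) with 10uM D-luciferin and 10uM ATP (Km levels) in 50mM Tris acetate pH 7.5, 10mM Mg acetate, 0.01% Tween-20, 0.05% BSA; qHTS 6-point titration, ~60 µM downward; luminescence read.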
Potency is read from the fitted curve at half-maximal effect; tags tell the direction and shape of the fitted curve.

Question: c1ccc(-c2nc3c4ccccc4ccn3c2CN2CCOCC2)cc1 was tested. Which Potency did it give?
Answer: active: 4.78 µM

Question: O=C(CCn1cccn1)NCc1ccc(Cl)cc1 was tested. Which “activity change, negative = inhibition” value did it give?
Answer: inactive: -1.88%

Question: How did the Potency turn out when COc1cc(/C=N/NC(=S)NC2CC3CC2C2C=CCC32)ccc1O (stereo not drawn) was run?
Answer: inconclusive: 37.9 µM [inhibitor, single point]

Question: O=S(=O)(Nc1ncccn1)c1ccc(NC(=S)Nc2ccccc2Cl)cc1 was tested. Which “activity change, negative = inhibition” value did it give?
Answer: inactive: -0.271%

Question: CSc1ccccc1C(=O)Nc1cc2c(cc1C(=O)O)OCCCO2 was tested. Which Potency did it give?
Answer: inconclusive: 37.9 µM [inhibitor, partial curve, poor fit]

Question: How did the Potency turn out when Cc1c(C(=O)Oc2ccc(-c3cnc4ccccc4n3)cc2)cccc1[N+](=O)[O-] was run?
Answer: inconclusive: 8.49 µM [inhibitor, partial curve]

Question: For O=C(NNc1nc2ccccc2s1)Nc1ccc(F)cc1, which Potency is on record?
Answer: inconclusive: 13.5 µM [inhibitor, partial curve, poor fit]

Question: With O=C(Nc1ccc(N2CCCCC2)cc1)c1cccnc1 as the compound, how does the Potency read?
Answer: active: 21.3 µM

Question: Which Potency does the source give for Cc1nc2ccc(NC(=O)CCS(=O)(=O)c3ccccc3)cc2s1 here?
Answer: inconclusive: 30.1 µM [inhibitor, single point]

Question: Which Potency does the source give for COc1cc(/C=N/c2oc(-c3ccccc3)cc2C#N)ccc1O here?
Answer: inconclusive: 12 µM [inhibitor, partial curve]

Question: COc1cccc2c(SCC(=O)N/N=C/c3ccc(O)c(O)c3)cc(C)nc12 was tested. Which Potency did it give?
Answer: inconclusive: 37.9 µM [inhibitor, single point]

Question: Which Potency does the source give for CCN(CC)c1ccc(NC(=O)CN(C)Cc2cccs2)cc1 here?
Answer: inconclusive: 26.9 µM [inhibitor, single point]

Question: How did the “activity change, negative = inhibition” value turn out when COc1ccc2cc3c(N)nn(C(=O)c4ccc(F)cc4)c3nc2c1 was run?
Answer: inactive: -7.16%

Question: For CC1=NC(=O)C(N=Nc2ccccc2)N1c1ccccc1 (stereo not drawn), which Potency is on record?
Answer: inconclusive: 1.9 µM [inhibitor, full curve, poor fit]

Question: For Cc1nc2cc(-c3ccc(Br)cc3)[nH]n2c(=O)c1Cl, which Potency is on record?
Answer: active: 9.53 µM

Question: For CCOc1ccc(Nc2nc(Cc3nnc(SCC(N)=O)o3)cs2)cc1, which Potency is on record?
Answer: active: 15.1 µM

Question: How did the “activity change, negative = inhibition” value turn out when COc1cccc(CNC(=O)CCc2nnc3n(CC(C)C)c(=O)c4ccccc4n23)c1 was run?
Answer: inactive: -1.28%

Question: Which Potency does the source give for COc1ccccc1NC(=O)NN1CCCCC1 here?
Answer: inconclusive: 23.9 µM [inhibitor, partial curve, poor fit]

Question: How did the Potency turn out when Cc1ccc(NC(=O)CSc2nnc3[nH]c(=O)cc(C)n23)cc1Cl was run?
Answer: inconclusive: 42.6 µM [inhibitor, partial curve, poor fit]

Question: Cn1cccc1/C=C(\C#N)c1ccccc1 was tested. Which Potency did it give?
Answer: inconclusive: 37.9 µM [inhibitor, partial curve, poor fit]

Question: For COc1ccc(CNc2ncnc3c2[nH]c2ccccc23)cc1, which Potency is on record?
Answer: inconclusive: 30.1 µM [inhibitor, partial curve, poor fit]

Question: For Cn1c(CNC(=O)CSc2n[nH]c(-c3ccccc3)n2)nc2ccccc21, which Potency is on record?
Answer: inconclusive: 26.9 µM [inhibitor, partial curve, poor fit]

Question: How did the “activity change, negative = inhibition” value turn out when O=C1C2C(c3ccccc3)C=CC(c3ccccc3)C2C(=O)N1c1ccccn1 (stereo not drawn) was run?
Answer: inactive: 5.77%

Question: For Cc1csc2nc(COc3ccc(NC(=O)COc4ccccc4F)cc3)cc(=O)n12, which “activity change, negative = inhibition” value is on record?
Answer: inactive: -3.13%

Question: How did the Potency turn out when CC1CCN(C(=O)CSc2nc(-c3ccc(C(C)C)cc3)no2)CC1 was run?
Answer: active: 3.38 µM

Question: How did the “activity change, negative = inhibition” value turn out when CC(C(=O)NCc1ccccc1)N1Cc2ccccc2C1=O (stereo not drawn) was run?
Answer: inactive: 3.12%

Question: C/C(=N\Nc1ccc(Cl)cc1)c1c(O)cc(C)oc1=O was tested. Which Potency did it give?
Answer: inconclusive: 37.9 µM [inhibitor, partial curve, poor fit]

Question: How did the Potency turn out when O=[N+]([O-])c1ccc(SCc2ccco2)cc1N1CCOCC1 was run?
Answer: inconclusive: 26.9 µM [inhibitor, partial curve, poor fit]

Question: COc1ccc2nc3oc(C(=O)N4CCCCC4)cc3cc2c1 was tested. Which Potency did it give?
Answer: active: 6.75 µM

Question: COc1cc(NC(=O)c2ccc(Cl)cc2)c(OC)cc1Cl was tested. Which Potency did it give?
Answer: inconclusive: 16.9 µM [inhibitor, partial curve]

Question: With COc1ccc(C(=O)Nc2nnc(SCC(=O)NCc3ccco3)s2)c(OC)c1 as the compound, how does the Potency read?
Answer: active: 0.675 µM

Question: Which Potency does the source give for O=C(NCCCN1CCCC1=O)c1sc2ccccc2c1Cl here?
Answer: inconclusive: 23.9 µM [inhibitor, partial curve, poor fit]

Question: With COc1cc(SC)ccc1C(=O)OCC(=O)NC1CCCC1 as the compound, how does the Potency read?
Answer: active: 23.9 µM

Question: With Cc1ccc(C)c(NC(=O)CCc2nc(-c3ccc(C(C)(C)C)cc3)no2)c1 as the compound, how does the Potency read?
Answer: active: 2.13 µM

Question: For CC(=O)c1c(C)[nH]c(C(=O)OCC(=O)N(Cc2ccccc2)C(C)(C)C)c1C, which “activity change, negative = inhibition” value is on record?
Answer: inactive: 2.12%

Question: For CCOc1cc(C#N)c(NC(=O)c2cccc(S(=O)(=O)N3CCOCC3)c2)cc1OCC, which “activity change, negative = inhibition” value is on record?
Answer: inactive: -7.31%

Question: For COc1cccc(NC(=O)CN(C)S(=O)(=O)c2cccs2)c1, which Potency is on record?
Answer: inconclusive: 19 µM [inhibitor, partial curve, poor fit]

Question: C#CCN(CC=C)C(=O)CCc1nnc(COc2ccccc2)o1 was tested. Which Potency did it give?
Answer: inconclusive: 37.9 µM [inhibitor, partial curve, poor fit]

Question: CCN(CC(=O)Nc1ccccc1C(F)(F)F)C(=O)c1ccc(N2CCCC2=O)cc1 was tested. Which “activity change, negative = inhibition” value did it give?
Answer: inactive: 0.231%

Question: For COc1cc(/C=C(\C#N)C(=O)N2CCc3ccccc32)ccc1O, which Potency is on record?
Answer: active: 16.9 µM

Question: COc1ccc(-n2nc(C(=O)N3CCN(c4cccc(C)c4)C(C)C3)c3c4ccccc4n(C)c3c2=O)cc1Cl (stereo not drawn) was tested. Which “activity change, negative = inhibition” value did it give?
Answer: inactive: -2.49%

Question: O=C(COC(=O)Cn1cnc2ccccc2c1=O)Nc1cc(Cl)ccc1[N+](=O)[O-] was tested. Which “activity change, negative = inhibition” value did it give?
Answer: inactive: 0.184%

Question: For Cn1c(SCC(=O)Nc2ccc(N3CCOCC3)c(Cl)c2)nnc1C(O)c1ccccc1 (stereo not drawn), which Potency is on record?
Answer: inconclusive: 30.1 µM [inhibitor, single point]

Question: Which Potency does the source give for Cc1ccccc1-c1noc(-c2ccc(NC3CCCC3)c([N+](=O)[O-])c2)n1 here?
Answer: inconclusive: 10.7 µM [inhibitor, partial curve]

Question: CCOC(=O)/C(C#N)=C1/C=Nc2ccccc2N1 was tested. Which Potency did it give?
Answer: inconclusive: 30.1 µM [inhibitor, partial curve, poor fit]

Question: With CCc1ccc(C(=O)COC(=O)CNC(=O)CNC(=O)Cc2ccccc2)cc1 as the compound, how does the Potency read?
Answer: inconclusive: 10.7 µM [inhibitor, partial curve]

Question: Which Potency does the source give for Cc1ccc(/C=C2\Oc3c(ccc(O)c3CN3CCN(CCO)CC3)C2=O)cc1 here?
Answer: inconclusive: 23.9 µM [inhibitor, partial curve, poor fit]

Question: With NNc1nc2c(-c3ccc(Cl)cc3)nnn2c2ccccc12 as the compound, how does the Potency read?
Answer: inconclusive: 2.39 µM [inhibitor, full curve, poor fit]

Question: For Nc1ccc2oc(-c3ccccc3Cl)nc2c1, which Potency is on record?
Answer: active: 1.35 µM

Question: How did the Potency turn out when O=C(Nc1ccc(F)cc1)Nc1ccc2c(c1)CCC2 was run?
Answer: inconclusive: 1.9 µM [inhibitor, full curve]

Question: For O=[N+]([O-])c1cc([N+](=O)[O-])c2nonc2c1Nc1ccccc1O, which Potency is on record?
Answer: inconclusive: 37.9 µM [inhibitor, partial curve, poor fit]

Question: For COC(=O)N1CCc2c(sc(NC(=O)C3=COCCO3)c2C#N)C1, which Potency is on record?
Answer: inconclusive: 37.9 µM [inhibitor, partial curve, poor fit]

Question: Cc1ccc(NC(=O)C2=C(O)c3sccc3N(C)S2(=O)=O)cc1 was tested. Which Potency did it give?
Answer: active: 8.49 µM

Question: O=C(CCOc1ccccc1)Nc1ccccc1 was tested. Which Potency did it give?
Answer: inconclusive: 42.6 µM [inhibitor, partial curve, poor fit]

Question: For Cc1cccc(C2CC(c3ccccc3)Nc3ncnn32)c1 (stereo not drawn), which “activity change, negative = inhibition” value is on record?
Answer: inactive: 1.76%

Question: Which Potency does the source give for Cc1cc([N+](=O)[O-])nn1CC(=O)N/N=C/c1ccccc1O here?
Answer: inconclusive: 23.9 µM [inhibitor, single point]

Question: For CCCCOc1ccc(-c2nc(=S)[nH][nH]2)cc1, which Potency is on record?
Answer: inconclusive: 37.9 µM [inhibitor, single point]

Question: O=C(c1ccc(Br)cc1)N1CCC(C(=O)N2CCN(c3ccccc3)CC2)CC1 was tested. Which “activity change, negative = inhibition” value did it give?
Answer: inactive: -3.51%

Question: For CCOc1ccccc1/C=C/c1onc(C)c1S(=O)(=O)N1CCC(C(=O)N2CCCCC2)CC1, which “activity change, negative = inhibition” value is on record?
Answer: inactive: 2.47%

Question: O=C(Cc1ccccc1)Nc1cccc([N+](=O)[O-])c1 was tested. Which “activity change, negative = inhibition” value did it give?
Answer: inactive: 1.89%

Question: Which Potency does the source give for COc1ccc2nc(NC(=O)CSc3nnc4n3C(C)(C)Cc3ccccc3-4)sc2c1 here?
Answer: active: 6.75 µM

Question: With O=C(/C=C/c1ccccc1)Nc1ccc(N2CCCCC2)cc1 as the compound, how does the Potency read?
Answer: inconclusive: 1.51 µM [inhibitor, full curve]

Question: With CC(C)c1ccc(NC(=S)Nc2cccc3ccccc23)cc1 as the compound, how does the Potency read?
Answer: inconclusive: 37.9 µM [inhibitor, partial curve, poor fit]

Question: How did the Potency turn out when c1c2c(cc3sc(N4CCOCC4)nc13)OCCO2 was run?
Answer: active: 0.953 µM

Question: CN(C(=O)CSc1nc2ccc(NC(=O)c3ccccc3)cc2s1)c1ccccc1 was tested. Which Potency did it give?
Answer: inconclusive: 8.49 µM [inhibitor, partial curve, poor fit]

Question: How did the Potency turn out when Oc1ccc(/C=C/c2nc(-c3ccccc3O)n(-c3ccccc3)n2)cc1 was run?
Answer: active: 16.9 µM

Question: O=C(/C=C/NNC(=O)c1ccccc1)c1ccccc1 was tested. Which Potency did it give?
Answer: inconclusive: 26.9 µM [inhibitor, single point]

Question: With O=C(CSc1nc(O)cc(=O)n1C1CCCC1)Nc1cccc(Cl)c1Cl as the compound, how does the Potency read?
Answer: inconclusive: 37.9 µM [inhibitor, partial curve, poor fit]

Question: For Cc1cnc(C(=O)N2CCCC(C(=O)c3ccc(C(F)(F)F)cc3)C2)cn1 (stereo not drawn), which Potency is on record?
Answer: inconclusive: 30.1 µM [inhibitor, single point]

Question: With C/C(N)=C(/C#N)C(=O)COC(=O)c1cc(-c2cccc(Br)c2)nc2ccccc12 as the compound, how does the “activity change, negative = inhibition” value read?
Answer: inactive: -18.4%

Question: Which Potency does the source give for CCC(=O)c1ccc2ncccc2c1 here?
Answer: inconclusive: 23.9 µM [inhibitor, partial curve, poor fit]

Question: With Cc1cccc(NC(=O)CSCC(=O)Nc2cc(Cl)ccc2N2CCN(C)CC2)c1 as the compound, how does the “activity change, negative = inhibition” value read?
Answer: inactive: 1.59%

Question: With COc1cccc(/C=C2\Oc3cc(OC(=O)N4CCOCC4)ccc3C2=O)c1 as the compound, how does the Potency read?
Answer: active: 6.01 µM
